Among all 72,000 compounds or so, about 710 (0.99%) were called active. The inconclusive results got no clear call from the source; some entries with a clear call stand among them for comparison. Calls follow the shape of the dose curve; as a rule, active = well fitted inhibition curve with a large enough effect; inconclusive = small, poorly fitted or top-dose-only effect; inactive = no such curve, though single readings can be large or run the other way. Potencies of inconclusive entries are left out as doubtful fits.
experiment: qHTS Assay for Inhibitors of the ERK Signaling Pathway using a Homogeneous Screening Assay; conditions: HEK293-V1b, vasopressin-stimulated pERK AlphaScreen; activity, negative = inhibition: at 57.5 µM (top of the series) unless noted; also: nearly all actives have a fitted effect of over 55% in size
Summary of the method: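 V1b-HEK293 cells; cpd 30 min 37C; 25 nM vasopressin 5 min; lyse 10 min; AlphaScreen beads 5 hr RT. Normalized to DMSO basal and 25 nM vasopressin; AC50 by Hill fit.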
% is scaled to controls: 0 for no effect and ±100 for the full control effect; potency is read from the fitted curve at half-maximal effect; tags tell the direction and shape of the fitted curve.

Row | SMILES | Potency | activity, negative = inhibition
1 | COc1ccc(-c2[nH]c(-c3cccc(OC)c3)nc2SCC(=O)NCc2ccco2)cc1 | inconclusive [inhibitor, single point] | 
2 | Cc1sc2ncn(CCn3cnc4sc(C)c(C)c4c3=O)c(=O)c2c1C | inconclusive [inhibitor, single point] | 
3 | COCCCNC(CC(=O)Nc1ccc(OC)cc1OC)C(=O)O (stereo unspecified) | inconclusive [inhibitor, single point] | 
4 | NC(Cc1cc(I)c(Oc2cc(I)c(O)c(I)c2)c(I)c1)C(=O)O (stereo unspecified) |  | inactive: 9.21%
5 | CCOC(=O)c1c(C)c2c(n1C)CCC/C2=N\O | active: 3.16 µM | 
6 | COc1cc2[nH]c(=S)n(C3CCCC3)c(=O)c2cc1OC | inconclusive [inhibitor, partial curve] | 
7 | Cn1c(C(C#N)C(=O)c2ccco2)nc2ccccc21 (stereo unspecified) | inconclusive [inhibitor, full curve, poor fit] | 
8 | COc1ccc(N2CCN(Cc3nc(N)nc(N4CCCc5ccccc54)n3)CC2)cc1 |  | inactive: -22%
9 | Nc1c(C(=O)Nc2ccccc2)sc2nc(-c3ccco3)ccc12 | active: 31.6 µM | 
10 | CC(=O)Nc1cccc(Oc2ccc(-c3noc(C)n3)cc2)c1 | inconclusive [inhibitor, single point] | 
11 | CC1CCCC(C)N1C(=O)CN1CCN(c2nc(-c3ccc(F)cc3)cs2)CC1 (stereo unspecified) | inconclusive [inhibitor, single point] | 
12 | O=C(Nc1cccnc1)c1ccc(Cl)c(S(=O)(=O)N2CCCCCC2)c1 | active: 20 µM | 
13 | CCCc1nnc2n1N=C(c1ccc(OC)c(OC)c1)CS2 | active: 15.8 µM | 
14 | CCCn1c(NCc2cccc(OC)c2OC)nc2ccccc21 |  | inactive: -0.277%
15 | COc1ccc(CC(=O)N2CC3(C)CC2CC(C)(C)C3)cc1OC (stereo unspecified) | active: 31.6 µM | 
16 | O=c1cc(-c2ccc(O)c(O)c2)oc2cc(OC3OC(CO)C(O)C(O)C3O)cc(O)c12 (stereo unspecified) |  | inactive: -35.2%
17 | CCCn1cc(NC(=O)C2CC(c3cccc(Br)c3)=NO2)cn1 (stereo unspecified) | inconclusive [inhibitor, single point] | 
18 | O=C(CSc1ncnc2c1oc1ccccc12)N1CCCc2ccccc21 | inconclusive [inhibitor, partial curve] | 
19 | c1ccc(-c2nc(-c3ccncc3)no2)cc1 |  | inactive: -0.583%
20 | N#Cc1nc(COc2ccc(Cl)cc2)oc1NCc1ccc2c(c1)OCO2 |  | inactive: 5%
21 | COC(=O)/C=C/S(=O)(=O)c1ccc(NC(C)=O)cc1 | inconclusive [inhibitor, single point] | 
22 | COc1ccc(-c2nn3c(-c4ccccc4)nnc3s2)cc1 | inconclusive [inhibitor, partial curve] | 
23 | COc1ccccc1Nc1nc(N)nc(CN2CCc3ccccc3C2)n1 | inconclusive [inhibitor, partial curve] | 
24 | CN1CCN(c2ncnc3ccc(-c4cccnc4)cc23)CC1 | inconclusive [inhibitor, single point] | 

Row | SMILES | Potency | activity, negative = inhibition
25 | CCc1ccc(C2CC(=O)N3CN(c4ccccc4)CSC3=C2C#N)cc1 (stereo unspecified) |  | inactive: 17.9%
26 | c1cc(N2CCCC2)ccc1C(c1nnnn1C1CCCCC1)N1CCOCC1 (stereo unspecified) |  | inactive: -9.32%
27 | CCCC[C@@H]1C[C@H]1C(NC(=O)c1cccs1)c1ccc(-c2ccccc2)cc1 (stereo partly specified) |  | inactive: 6.51%
28 | COC(=O)c1ccc(OC(=O)C2CC(=O)N(c3ccc(C)cc3C)C2)cc1 (stereo unspecified) |  | inactive: -3.05%
29 | CCCC(=O)N1CCN(c2ccc(NC(=O)c3cc4ccccc4o3)cc2Cl)CC1 | active: 7.94 µM | 
30 | Nc1c(NCCC2=CCCCC2)c(=O)[nH]c(=O)n1Cc1ccccc1 | inconclusive [inhibitor, single point] | 
31 | COC(=O)[C@@]1(Cc2ccccc2)[C@H]2c3cc(C(=O)N4CCCC4)n(Cc4cccc5ccccc45)c3C[C@H]2CN1C(=O)c1ccccc1 |  | inactive: -3.54%
32 | COc1ccc(NC(=O)Nc2ccc(C)cc2OC(F)F)cc1OC | inconclusive [inhibitor, partial curve] | 
33 | COc1ccc(S(=O)(=O)N(CC(N)=O)C2CCCCC2)cc1Cl | inconclusive [inhibitor, single point] | 
34 | COC(=O)c1cc(OC)c(OC)cc1NC(=O)c1ccccc1 | inconclusive [inhibitor, partial curve] | 
35 | C=CCn1c(SCc2nc3ccccc3[nH]2)nnc1-c1ccccn1 | inconclusive [inhibitor, single point] | 
36 | CCN(CC)S(=O)(=O)c1ccc(-c2nnc(SCC(=O)Nc3ccc4c(c3)OCO4)o2)cc1 |  | inactive: 16.2%
37 | CN1CCCN(C(=O)Cc2c(Cl)cccc2Cl)c2nc3ccccc3nc21 |  | inactive: 23.9%
38 | CCCCSc1nnc(-c2cc(Br)ccc2N)c(=O)[nH]1 | inconclusive [inhibitor, partial curve] | 
39 | c1ccc(-c2noc(C3CCCCC3)n2)nc1 | inconclusive [inhibitor, single point] | 
40 | COc1ccc2nc(SCc3nc(N)nc(Nc4ccccc4)n3)[nH]c2c1 | inconclusive [inhibitor, partial curve] | 
41 | COc1ccc(CCN(Cc2cc3cccc(C)c3[nH]c2=O)C(=O)N2CCCC2)cc1OC | inconclusive [inhibitor, partial curve] | 
42 | O=C(NCc1cccnc1)C1CCCN(S(=O)(=O)c2ccc(Br)cc2)C1 (stereo unspecified) | inconclusive [inhibitor, single point] | 
43 | CCCn1c(NC(=O)c2cccc(S(=O)(=O)N3CCCC3)c2)nc2ccccc21 | inconclusive [inhibitor, partial curve, poor fit] | 
44 | CCOc1ccc(Nc2nc(NCCN3CCOCC3)nc(OC)n2)cc1 |  | inactive: 8.55%
45 | CCC(=O)N1CCN(c2nc(-c3ccccc3)c3c(c2C#N)CCCC3)CC1 | inconclusive [inhibitor, partial curve, poor fit] | 
46 | O=C(Cn1cnc2c(cnn2-c2ccccc2)c1=O)OCc1ccccc1 | inconclusive [inhibitor, single point] | 
47 | C=CCn1c(SCC(=O)N2CCOCC2)nc2sc3c(c2c1=O)CCCC3 | inconclusive [inhibitor, partial curve] | 
48 | O=C(Nc1ccc2nc(-c3ccc(Br)o3)[nH]c2c1)c1cccs1 | inconclusive [inhibitor, partial curve] | 

Row | SMILES | Potency | activity, negative = inhibition
49 | Cc1ccc2nc(N3CCOCC3)c3nncn3c2c1 | inconclusive [inhibitor, partial curve, poor fit] | 
50 | Cc1c(C(=O)Nc2ccc(F)cc2)oc2ccc(S(=O)(=O)N3CCCC3)cc12 | inconclusive [inhibitor, partial curve] | 
51 | Cn1cc(-c2nc3cncnc3n(Cc3ccccc3Cl)c2=O)c2ccccc21 |  | inactive: 5.96%
52 | COC(=O)c1ccc(CSc2nc(-c3ccc(OC)cc3)nc3c2c(=O)n(C)c(=O)n3C)o1 |  | inactive: 9.44%
53 | CC(C)(C)NC(=O)NC(=O)COc1ccccc1C#N |  | inactive: 36.3%
54 | O=C(Nc1ccc(F)cc1)C1CCCN(S(=O)(=O)c2cccc3cccnc23)C1 (stereo unspecified) | inconclusive [inhibitor, single point] | 
55 | Cc1ccc(NCN2C(=O)c3ccccc3C2=O)c(C)c1 | inconclusive [inhibitor, partial curve] | 
56 | COC(=O)c1[nH]c2ccccc2c1NC(=O)CNC1CCCCC1 | inconclusive [inhibitor, full curve, poor fit] | 
57 | CCC(C)(C)n1nnnc1CN(Cc1ccco1)Cc1cc2cc3c(cc2[nH]c1=O)OCO3 | inconclusive [inhibitor, single point] | 
58 | CC(C)c1cc(CN2CCN(CCC#N)CC2)cc(C(C)C)c1O | inconclusive [inhibitor, partial curve] | 
59 | CN(C)c1ccc(-c2cncnc2NCc2cccs2)cc1 | inconclusive [inhibitor, partial curve, poor fit] | 
60 | O=C(NCc1ccco1)c1cccc(S(=O)(=O)N2CCCCC2)c1 | inconclusive [inhibitor, partial curve] | 
61 | N#Cc1cc(Cl)c(N2CCOCC2)cc1C#N | inconclusive [inhibitor, single point] | 
62 | CN1CCN(Cc2cc(COCc3ccccc3)c3cccnc3c2O)CC1 |  | inactive: -4.23%
63 | COC(=O)c1[nH]c2cccc(OC)c2c1NC(=O)CN1CCC(C(N)=O)(N2CCCCC2)CC1 |  | inactive: -1.91%
64 | Cc1ccc(OCCCCn2ccnc2)c(Cl)c1 | inconclusive [inhibitor, partial curve] | 
65 | COc1cc2c(cc1OC)C(C)N(C(=O)c1cc3n(n1)C(C(F)(F)F)CC(c1ccco1)N3)CC2 (stereo unspecified) | inconclusive [inhibitor, partial curve] | 
66 | C=CCn1c(SCC(=O)Nc2cc3oc4ccccc4c3cc2OC)nnc1-c1cnccn1 | inconclusive [inhibitor, partial curve, poor fit] | 
67 | CCC(C)NC(=O)c1cn(C)c(=O)c2cc(OC)c(OC)cc12 (stereo unspecified) |  | inactive: -9.42%
68 | COc1ccc(Cc2nnc(SCc3nc4ccccc4c(=O)[nH]3)n2C)cc1 |  | inconclusive: -35.5% [inhibitor]
69 | O=C(Nc1ccn(Cc2ccc(Cl)cc2)n1)c1ccc2c(c1)OCO2 | inconclusive [inhibitor, partial curve] | 
70 | Cc1nn(C)cc1CNC(=O)c1cc2n(n1)C(C(F)(F)F)CC(c1cccs1)N2 (stereo unspecified) | inconclusive [inhibitor, single point] | 
71 | CN(C)c1ccc(-c2cc(Nc3ccc(F)cc3)ncn2)cc1 | inconclusive [inhibitor, partial curve] | 

From PubChem BioAssay AID995 (National Center for Advancing Translational Sciences (NCATS), 2007)
